Assay results published in PubChem BioAssay AID1745853 (National Center for Advancing Translational Sciences (NCATS), 2022).
The list shows a part of the results. Further columns of the screen follow, without active or inactive calls.

Assays:
Experiment in all cases: Primary Screen for Target Class Profiling of Small Molecule Inhibitors of Methyltransferases
[1] = target: Glycine N-methyltransferase (Homo sapiens) (UniProt Q14749); conditions: purified enzyme, MTase-Glo SAH luminescence; measured here: GNMT inhibition; at 40 µM; stronger effect = lower value
How it was run: (§1)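 Each enzyme was reacted with SAM and its substrate, with compounds tested once at 40 uM; SAH formed was read by MTase-Glo luminescence.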

[2] = target: Guanidinoacetate N-methyltransferase (Homo sapiens) (UniProt Q14353); conditions: purified enzyme, MTase-Glo SAH luminescence; measured here: GAMT inhibition; at 40 µM; stronger effect = lower value
How it was run: as §1

[3] = target: Histamine N-methyltransferase (Homo sapiens) (UniProt P50135); conditions: purified enzyme, MTase-Glo SAH luminescence; measured here: HNMT inhibition; at 40 µM; stronger effect = lower value
How it was run: as §1

[4] = target: Nicotinamide N-methyltransferase (Homo sapiens) (UniProt P40261); conditions: purified enzyme, MTase-Glo SAH luminescence; measured here: NNMT inhibition; at 40 µM; stronger effect = lower value
How it was run: as §1

[5] = target: Phenylethanolamine N-methyltransferase (Homo sapiens) (UniProt P11086); conditions: purified enzyme, MTase-Glo SAH luminescence; measured here: PNMT inhibition; at 40 µM; stronger effect = lower value
How it was run: as §1
On the % scale 0 is the no-effect control and ±100 the full control effect.

| SMILES | activity change, negative = inhibition [1] [%] | activity change, negative = inhibition [2] [%] | activity change, negative = inhibition [3] [%] | activity change, negative = inhibition [4] [%] | activity change, negative = inhibition [5] [%] |
| --- | --- | --- | --- | --- | --- |
| CC(C)CCn1c(=O)c2ccc(C(=O)NC(C)C)cc2n2c(=O)n(CC(=O)NC(C)(C)C)nc12 | 2.51 | 3.52 | 6.89 | -8.61 | 2.08 |
| CC1=COC(OC2OC(CO)C(O)C(O)C2O)C2C(CO)CC(OC(=O)/C=C/c3ccc(O)cc3)C12 (stereo not given) | -1.26 | -2.64 | -7.06 | -13.1 | 0.203 |
| CCCN1C(=O)c2ccccc2CC1(C)C(=O)NC1CCCCCCC1 (stereo not given) | -0.109 | 0 | 11.5 | 11 | 4.18 |
| CCc1ccc(CNC(=O)CNC(=O)C2(C)Cn3c(cc4ccccc43)C(=O)N2CC)cc1 (stereo not given) | 2.67 | 0 | 7.88 | -2.49 | 3.05 |
| CCCN1C(=O)c2c(C(=O)NCc3cc(Br)ccc3OC)ncn2CC1(C)C(=O)NCCC(C)C (stereo not given) | -1.77 | 0 | -0.658 | -7.5 | 2.31 |
| CC(C)Oc1ccc(CNC(=O)Cn2ccc3cc(S(=O)(=O)N4CCCC4)ccc32)cc1 | -4.07 | 2.48 | -1.34 | -5.72 | -1.04 |
| CC(C)(Oc1ccc(C2CC2(Cl)Cl)cc1)C(=O)O (stereo not given) | 10.1 | 15 | 13.1 | -1.07 | 4.78 |
| C[S+](=O)([O-])c1ccc(-c2nnc3ccc(C(=O)NC4CCCCC4)cn23)cc1 | -5.71 | -10.3 | -9.38 | -14.5 | 7.28 |
| COc1cccc(CN2C(=O)c3cc4occc4n3CC2(C)C(=O)NC2CCCC(C)C2C)c1 (stereo not given) | -6.97 | 0.204 | 0.114 | -14.1 | -3.55 |
| CC(C)(C)C(=O)N[C@H]1C[C@@H](Cc2cc(CN3CCN(c4ccccc4)CC3)on2)C1(C)C | -6.31 | -8.32 | -5.08 | -12.6 | -12.4 |
| CCc1ccc(N2C(=O)c3cc4oc(C)cc4n3CC2(C)C(=O)NC2CCCCCC2)cc1 (stereo not given) | -2.38 | 3.23 | 4.25 | 1.86 | -2.48 |
| CCn1c(C)ccc(C(=O)N2CCc3[nH]nc(-c4ccccc4F)c3C2)c1=O | -8.54 | -6.71 | -3.59 | -8.99 | -17.8 |
| COc1ccc(CCNC(=O)c2ccc3nnc(C4CC4)n3c2)cc1 | -8.19 | -8.71 | -4.19 | -12 | -5.82 |
| Cc1c(Cl)cccc1NC(=O)N1CCn2cccc2C1C(C)C (stereo not given) | 3.12 | 0.16 | 0.595 | 0.271 | 0.56 |
| COC(=O)c1ncn2c1C(=O)N(Cc1ccc(Cl)cc1)C(C)(C(=O)NC1CCCCC1)C2 (stereo not given) | 5.78 | 5.96 | 8.11 | 11.7 | 4.48 |
| COc1ccc(C(=O)N2CCC3(CC2)CC(N(Cc2ccccc2)C2CC2)CCO3)cn1 (stereo not given) | -8.38 | -9.23 | -5.7 | -17.6 | -9.36 |
| COc1ccc(S(=O)(=O)Nc2cc(Cl)cc(Cl)c2OC)cc1N1CCNCC1 | -0.62 | -6.01 | 1.51 | -14.2 | -9.7 |
| COc1ccc(-c2ccccc2NC(=O)C2CCCN2C(=O)c2cccnc2)cc1 (stereo not given) | -5.77 | -5.33 | -1.66 | -10.5 | -5.2 |
| CC(C)CNC(=O)c1ccc2c(=O)n(C(C)C)c3nn(Cc4ccc(N5CCCC5=O)cc4)c(=O)n3c2c1 | 2.75 | 0 | 5.07 | 4.17 | 5.36 |

| SMILES | activity change, negative = inhibition [1] [%] | activity change, negative = inhibition [2] [%] | activity change, negative = inhibition [3] [%] | activity change, negative = inhibition [4] [%] | activity change, negative = inhibition [5] [%] |
| --- | --- | --- | --- | --- | --- |
| CCCn1c(=O)c2ccc(C(=O)NC3CCCCC3)cc2n2c(=O)n(CC(=O)NC3CCCCC3)nc12 | 10 | 1.25 | 12.7 | 6.82 | 8.16 |
| Cn1c(=O)n(C)c2cc(S(=O)(=O)NCc3ccccc3)c(Cl)cc21 | -6.03 | -1.13 | -9.88 | -11.5 | -7.15 |
| COC(=O)C1=COC(O[C@@H]2O[C@H](CO)[C@@H](O)[C@H](O)[C@H]2O)C2C(C)C(=O)CC12 (stereo not given in full) | 6.58 | 3.11 | 8.91 | -4.15 | 4.47 |
| CCCn1c(C)cnc1CCNC(=O)CC1CCN(C(C)=O)CC1 | -0.906 | 0.924 | -13 | -6.07 | 6.76 |
| O=c1c2ccccc2n2c(=O)n(Cc3ccc(F)cc3Cl)nc2n1Cc1ccccc1 | 0.135 | 0 | 5.12 | 2.62 | 3.64 |
| Cc1cccc(C(=O)N2CCC(c3nc(C4CCOCC4)no3)C2)c1 (stereo not given) | -2.85 | -2.77 | -1.27 | -9.65 | -6.27 |
| Cc1ccc(CNC(=O)c2cc3n(n2)CC(C)(C(=O)NC2CCCCC2)N(C)C3=O)cc1 (stereo not given) | 6.25 | 0.104 | 4.44 | 11.3 | 3.82 |
| CC(/C=C/[C@]1(O)[C@@]2(C)CO[C@@]1(C)C[C@@H](O)C2)=C\C(=O)O[C@@H]1O[C@H](CO)[C@@H](O)[C@H](O)[C@H]1O | 0 | 0.666 | -3.19 | -9.84 | 0.77 |
| CN1CCC2(CCC1=O)CN(C(=O)CCOc1ccccc1)CCN2C (stereo not given) | -4.69 | 1.24 | 2.81 | -0.27 | -17.2 |
| O=C(Cn1ccc2cc(S(=O)(=O)N3CCCC3)ccc21)NCCc1ccc(Cl)cc1 | -0.214 | 0 | -2.64 | -0.81 | -2.06 |
| O=C1CC2CCN(C(=O)C3CCCCC3)CC2CCN1 (stereo not given) | 0.537 | 1.55 | 3.47 | -0.763 | -0.505 |
| COc1ccc(-c2cn3cc(C(=O)N4CCCCC4)nc3c(=O)n2CC2CC2)cc1 | -27.6 | 2.12 | 2.45 | -14.7 | 1.43 |
| CN(C)[C@@H]1CN(Cc2ccccn2)CC[C@@H]1CO | -1.06 | -1.7 | -1.02 | -1.05 | -22 |
| CC(=O)c1c(C)nn(CCC(=O)N2CCC3(CC2)[C@H](O)C[C@@H]3O)c1C | -4.99 | -0.352 | -0.05 | -1.16 | 3.61 |
| CCc1nc(-c2c3n(c(=O)n(CC(=O)NC4CCCC4)c2=O)CCCCC3)no1 | -0.524 | 4.66 | 1.63 | -2.5 | 13.5 |
| Cc1ccc(C(CC(=O)N2CCCCC2)c2cn(C)c3ccccc23)cc1 (stereo not given) | -2.91 | -0.567 | -2.08 | -11.4 | 0.211 |
| CCCN1C(=O)c2cc(C(=O)N3CCN(C)CC3)nn2CC1(C)C(=O)NC1CCCC1 (stereo not given) | -1.9 | 2.36 | 4.57 | 1.44 | -1.6 |
| COc1ccccc1CN1C(=O)c2ccc(-c3ccco3)n2CC1(C)C(=O)NC1CCCCCC1 (stereo not given) | -3.3 | 3.79 | 1.41 | -11.4 | -2.03 |
| CCOc1ccccc1CN1C(=O)c2cc3sccc3n2CC1(C)C(=O)NC1CCCCCCC1 (stereo not given) | -5.76 | 0 | -2.45 | -6.62 | -5.49 |
